Test results as given in PubChem BioAssay AID662 (National Center for Advancing Translational Sciences (NCATS), 2007).
In all, about 71,000 compounds went through this assay and about 1,800 (2.5%) were called active. The inconclusive results got no clear call from the source; some entries with a clear call stand among them for comparison. The call rests on the fitted dose curve; in most records, active means well fitted activation curve with a large enough effect in the signal ratio, with a control signal flat (not every such curve was filed as active); inconclusive means small, poorly fitted or top-dose-only effect, or effect the other way, or a change in a side signal; inactive means flat fitted curve, though single readings scatter; the % refers to the signal ratio. Potencies beside an inconclusive call are fits to weak or partial responses and may not hold up.

Test: Cell signaling CRE-BLA (Fsk stim); on activity change, negative = inhibition: % of control where 0% means no effect
Details: CHO CRE-bla reporter (cAMP response element driving beta-lactamase), forskolin EC10, beta-lactamase ratio; activity change, negative = inhibition: at 38.2 µM (top of the series) unless noted
In short: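 The 460nm/530nm emission ratio after CCF4 loading defined %Activity, from which AC50 values were obtained. CRE-bla CHO cells received compound dilution series together with an EC10 level of NKH 477 for 3 hours at 37 degrees Celsius.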
Potency means the concentration at half of the fitted maximal effect; tags describe the fitted curve by direction and shape.

Structure (SMILES) | activity change, negative = inhibition | Potency
COc1ccccc1-n1c(SCC(=O)Nc2ccc3c(c2)OCO3)nc2c(c1=O)SCC2 | inconclusive: 27.6% | 
CN(c1ccccc1)C(c1ccc(F)cc1)c1nnnn1C1CCCC1 (stereo not drawn) | inactive | 
Clc1ccc(OCCCc2nc(-c3cccnc3)no2)c(Cl)c1 | inactive | 
Cc1cccc(-n2ncc3c(N)ncnc32)c1 |  | inconclusive: 12.6 µM [rising, single point]
O=C(O)CC[C@@H](C(=O)O)N1C(=O)[C@@H]2[C@@H]3CC[C@H](C3)[C@@H]2C1=O | inactive: 5.75% [at 7.6 µM] | 
CN(C)CCNS(=O)(=O)N(C)C | inactive: 22.1% [at 7.6 µM] | 
CN(C)S(=O)(=O)c1ccc(C(=O)Nc2ccccn2)cc1 | inconclusive: 11.9% [at 7.6 µM] | 
COc1ccc(C2C(C(N)=O)=C(C)Nc3nc(-c4ccccc4Cl)nn32)c(OC)c1 (stereo not drawn) | inactive | 
CCSc1nnc(-c2ccc(S(=O)(=O)N3CCCC3)cc2)n1C | inactive | 
CC(C)C(OC(=O)c1ccco1)C(=O)NCc1ccccc1 (stereo not drawn) | inconclusive: -23.7% | 
CN1CCCc2cc(C#N)c(=O)[nH]c21 |  | inconclusive: 3.16 µM [rising, single point]
COc1cccc2sc(N3CCN(c4nc5ccccc5s4)CC3)nc12 | inactive | 
CCN(CC)C(c1ccc(F)cc1)c1nnnn1C1CCCCC1 (stereo not drawn) | inactive | 
CC1=C(C#N)C(C)C2=C(CC(C)(C)CC2=O)N1 (stereo not drawn) | inconclusive: 15.1% | 
O=C(CN1CCN(c2ccccn2)CC1)Nc1ccc2ccccc2c1 | inconclusive: -28.9% | 
COc1cc(OC)c(-c2nn3c(-c4ccncc4)nnc3s2)cc1OC |  | inconclusive: 10 µM [rising, partial curve]
NC=O | inactive | 
COc1ccc(C(=O)Nc2nc(-c3cccs3)cs2)cc1 |  | inconclusive: 25.1 µM [falling, single point]
CCCc1nc2ccccc2c(=O)n1-c1c(C)n(C)n(-c2ccccc2)c1=O | inconclusive: 0.857% | 
COc1ccc2[nH]c3c(c2c1)CCn1c-3nc2ccccc2c1=O | inactive | 
CC1=C(C(=O)OCc2ccccc2)C(c2ccc3ccccc3c2)NC(=O)N1CCCCCC(=O)O (stereo not drawn) |  | inconclusive: 5.01 µM [rising, partial curve]

Structure (SMILES) | activity change, negative = inhibition | Potency
COc1ccc(-c2cn3cccnc3n2)cc1NC(=O)C1CC1 |  | inconclusive: 3.16 µM [rising, full curve]
Cc1c(C(=O)OC2CCC(C)CC2)[nH]c2c1C(=O)CCC2 (stereo not drawn) |  | inconclusive: 10 µM [rising, single point]
Clc1ccc(-c2nc3nc4ccccc4nc3n2Cc2ccco2)cc1 | inconclusive: 23.6% | 
CCC1SC2=NC(C)=C(C(=O)OC)C(c3cccs3)N2C1=O (stereo not drawn) | inactive | 
COC(=O)C1(CCSC)NC(c2ccc(O)cc2)C2C(=O)N(c3ccc4c(c3)OCCO4)C(=O)C21 (stereo not drawn) | inactive | 
Cc1nc2sccn2c(=O)c1CCN1CCC(=C(c2ccccc2)c2ccc(F)cc2)CC1 |  | inconclusive: 7.94 µM [falling, full curve, poor fit]
CCOC(=O)Cn1nnc(-c2cccc(OC)c2)n1 | inconclusive: -6.39% | 
CC(=O)Nc1cccc(NC(=O)C2CCCN2C(=O)Nc2cccc(F)c2)c1 (stereo not drawn) | inactive | 
Nc1cc(Cl)ccc1Oc1ccccc1 | inconclusive: -2.05% | 
FC(F)Sc1ccc(Nc2ncnc3nc[nH]c23)cc1 | inconclusive: 8.37% | 
O=C(O)c1ccc(OCc2ccccc2)c(Cl)c1 | inactive: 2.84% [at 7.6 µM] | 
Cc1ccc(Cn2c(C)nc3c(c2=O)c2nc4ccccc4nc2n3Cc2ccco2)cc1 |  | inconclusive: 10 µM [rising, single point]
Cn1c(C(=O)NC2CCCC2)cc2c(=O)n(C)c3ccccc3c21 |  | inconclusive: 7.94 µM [rising, partial curve]
CCCCC(=O)Nc1ccc2c3c(cccc13)C(=O)N2CC |  | inconclusive: 6.31 µM [rising, partial curve]
CSc1nnc2c(n1)OC(C)N(C(=O)c1ccccc1)c1ccccc1-2 (stereo not drawn) |  | inconclusive: 20 µM [falling, partial curve, poor fit]
O=C(Nc1ccccc1Oc1ccccc1)c1ccc(Br)o1 |  | inconclusive: 3.16 µM [rising, single point]
COc1ccc(-c2cc(C(F)(F)F)nc(SCC(=O)Nc3cc(C)on3)n2)cc1OC |  | active: 2 µM
C=C(C)Cn1c(SCCCO)nc2c1c(=O)[nH]c(=O)n2C |  | inconclusive: 12.6 µM [rising, single point]
N#Cc1ccccc1Cn1c(=O)n(CCCC(=O)NCc2ccc3c(c2)OCO3)c(=O)c2ccccc21 |  | inconclusive: 1.26 µM [rising, full curve]
COc1c(-c2ccccc2)oc2c(ccc3occc32)c1=O | inactive | 
COCCn1c(N2CCN(c3ccc(OC)cc3)CC2)nc2c1c(=O)[nH]c(=O)n2C | inconclusive: -15.4% | 

Structure (SMILES) | activity change, negative = inhibition | Potency
Cc1ccc(OCc2nnc(SCc3nc4ccccc4[nH]3)n2Cc2ccco2)cc1 | inconclusive: 21.9% | 
CC(=O)Nc1ccc(NC(=O)CSC2=NCCS2)cc1 | inactive | 
CCCCCCCCCCCCCCCCCCc1ccc(C(=O)/C=C\C(=O)O)cc1 | inconclusive: -5.09% | 
CCOC(=O)C1CCN(C(=O)CSc2cc(=O)n(C)c3ccccc23)CC1 | inconclusive: 46.9% | 
COc1ccc(C(=O)N2CCC3(CCCN(C(=O)Nc4cccc(C#N)c4)C3)CC2)cc1 | inactive | 
Cc1nn2c3ccccc3nc2n(C)c1=O | inactive | 
Cc1cnc(NC(=O)CSc2nc3ccccc3c(=O)[nH]2)s1 | inconclusive: 26.5% | 
Nc1nc(-c2ccco2)cs1 | inactive | 
O=C(Cc1coc2cc3c(cc12)CCC3)OCc1cc(=O)n2c(n1)sc1ccccc12 | inconclusive: 26.3% | 
O=c1cnc2cnc(Oc3cccc(Cl)c3)nc2n1CCc1ccccc1 |  | active: 15.8 µM
CC(C)c1cc(Nc2cccc(O)c2)cc(C(C)C)c1O | inconclusive: -23.2% | 
C=CCn1c(SCC2=C(C(=O)OCC)C(C)NC(=O)N2)nnc1C1CCCCC1 (stereo not drawn) | inconclusive: -11.3% | 
CCn1c(=O)c(=O)n(CC)c2cc(S(=O)(=O)Nc3cccc(OC)c3)ccc21 | inconclusive: 8.48% | 
CCOc1ncccc1C(=O)OCc1nnc(-c2ccccc2)o1 |  | inconclusive: 3.16 µM [rising, single point]
CC(=O)c1ccc(NC(=O)CSc2nc3nc(C)cc(C)n3n2)cc1 |  | inconclusive: 10 µM [rising, partial curve]
CCOCCCN(C(=O)CNC(=O)c1ccco1)C(C(=O)NC1CCCC1)c1ccccc1C (stereo not drawn) |  | inconclusive: 0.126 µM [falling, full curve]
CC1N=C2c3ccccc3N=C(SCc3cc(=O)n4ccccc4n3)N2C1=O (stereo not drawn) |  | active: 12.6 µM
O=C(CCn1c(=O)oc2ccccc21)NCCCN1CCN(c2ccc(F)cc2)CC1 |  | inconclusive: 0.251 µM [rising, partial curve]
O=C(COC(=O)CCCc1c[nH]c2ccccc12)Nc1ccc2c(c1)OCO2 | inconclusive: -13.8% | 
O=C(O)C1CC=CCC1C(=O)Nc1ccc(F)c(F)c1 (stereo not drawn) | inconclusive: -1.56% | 
CS(=O)(=O)c1ccc(-c2cc(Br)sc2-c2ccc(F)cc2)cc1 | inconclusive: -13.6% | 

Structure (SMILES) | activity change, negative = inhibition | Potency
COC(=O)CNC(=O)[C@@]1(Cc2ccccc2)C=C[C@@H](C)N1C(=O)c1ccccc1 | inactive | 
CC(=O)N1C2(C=CC1(C)C(=O)NCCN1CCOCC1)CCCCC2 (stereo not drawn) | inactive | 
CC(C)Cn1nc(NC(=O)C2CCCO2)c2cc3ccccc3nc21 (stereo not drawn) |  | inconclusive: 10 µM [rising, partial curve]
OC1(CN2CCOCC2)C2CN3CCN(C2)CC1(c1ccccc1)C3 (stereo not drawn) |  | inconclusive: 0.0251 µM [rising, single point]
O=S(=O)(NCC(c1cccnc1)N1CCN(c2ccc(F)cc2)CC1)c1ccc(F)cc1 (stereo not drawn) | inactive | 
N[C@H](C(=O)O)c1ccc(C(=O)O)cc1 | inconclusive: -9.47% | 
COc1ccc(C(=O)Nc2cc(Cl)ccc2Cl)c(OC)n1 | inactive | 
N#CC1=C(N)Oc2cc(N)ccc2C1C1CC=CCC1 (stereo not drawn) |  | inconclusive: 25.1 µM [rising, single point]
O=C1c2ccccc2C(=O)C1c1ccc2ccccc2n1 | inactive | 
Cc1ccc(CNC(=O)[C@H](C)[C@H]2C[C@]2(C)[C@H](NC(=O)OCc2ccccc2)c2ccccc2)c(F)c1F | inconclusive: -6.33% | 
CC(=O)Nn1cc2c(=O)n(C)c(=O)n(C)c2c1 | inconclusive: 9.67% [at 7.6 µM] | 
O=C(CC(C(=O)N1CCc2ccccc21)n1ccnc1)N1CCc2ccccc2C1 (stereo not drawn) | inactive | 
O=C(c1cccc(Cl)c1)N1CCN(C(=O)c2ccco2)CC1 | inactive | 
CCNS(=O)(=O)c1ccc(NC(=O)Cn2nc(C(F)(F)F)cc2C)cc1 | inconclusive: 3.96% | 
CCc1nc(N)c(C#N)c(-c2ccc(OC)c(OC)c2)c1C |  | inconclusive: 12.6 µM [rising, partial curve]
Cc1c2c(nc3c(C(=O)NC4CCCC4)cnn13)CCCC2 |  | active: 2.51 µM
CC1(C)S[C@@H]2[C@H](NC(=O)[C@H](C(=O)O)c3ccsc3)C(=O)N2[C@H]1C(=O)O | inactive | 
Cc1c(Cl)cccc1NC(=O)C[C@H]1Sc2ccccc2NC1=O | inactive: -10.6% [at 7.6 µM] | 
COc1cc2[nH]c(=O)n(CCCC(=O)NCCc3ccccc3)c(=O)c2cc1OC | inconclusive: 24.4% | 
CCCn1c2ccccc2c2nc3ccccc3nc21 |  | inconclusive: 0.158 µM [rising, full curve, poor fit]
